Hit rate of the full screen: of about 270,000 compounds, about 620 (0.23%) were called active. Inconclusive means that the source gave no clear call. Such entries were picked first, then a sample of the others. The call rests on the fitted dose curve; in most records, active means well fitted inhibition curve with a large enough effect in the polarisation, with a control signal flat (not every such curve was filed as active); inconclusive means small, poorly fitted or top-dose-only effect, or effect the other way, or a change in a side signal; inactive means no such curve, though single readings can be large or run the other way; the % refers to the polarisation. A potency beside an inconclusive call is a rough fit, not a confirmed value. “Side channel” marks fits to a control or component signal instead of the main read-out.
Target: Menin (Homo sapiens) (UniProt O00255)
Sequence of UniProt O00255 (O00255 whole entry, looked up): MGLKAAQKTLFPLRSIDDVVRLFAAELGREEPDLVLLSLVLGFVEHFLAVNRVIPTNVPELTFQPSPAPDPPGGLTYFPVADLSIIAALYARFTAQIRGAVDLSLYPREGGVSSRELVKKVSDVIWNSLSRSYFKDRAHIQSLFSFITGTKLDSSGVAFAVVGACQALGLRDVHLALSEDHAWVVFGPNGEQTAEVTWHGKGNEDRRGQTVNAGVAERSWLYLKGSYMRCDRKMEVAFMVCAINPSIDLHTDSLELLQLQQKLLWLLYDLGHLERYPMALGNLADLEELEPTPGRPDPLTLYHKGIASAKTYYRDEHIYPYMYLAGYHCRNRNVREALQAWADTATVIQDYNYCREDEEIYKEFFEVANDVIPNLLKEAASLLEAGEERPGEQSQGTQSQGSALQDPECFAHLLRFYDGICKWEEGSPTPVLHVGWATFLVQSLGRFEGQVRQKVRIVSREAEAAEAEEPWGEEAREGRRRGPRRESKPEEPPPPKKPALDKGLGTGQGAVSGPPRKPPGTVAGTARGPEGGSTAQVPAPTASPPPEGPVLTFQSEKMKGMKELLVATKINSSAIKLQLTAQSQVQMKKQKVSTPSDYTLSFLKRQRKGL
Experiment: qHTS Assay for Inhibitors Targeting the Menin-MLL Interaction in MLL Related Leukemias: Competition With Texas Red Labeled MLL-derived Mutant Peptide
Details: fluorescence polarization; series mostly up to 61.6 µM
Potency means the concentration at half of the fitted maximal effect; tags describe the fitted curve by direction and shape or compound fluorescence and quenching.

Row | Structure (SMILES) | Potency
1 | Cc1cc(S(=O)(=O)Nc2ccccc2C(=O)O)ccc1Cl | inconclusive: 28.2 µM [quencher, side channel, single point]
2 | COc1ccc(-n2nc(C(=O)NCC(=O)N3CCN(c4ccccn4)CC3)c3ccccc3c2=O)cc1 | inconclusive: 3.16 µM [inhibitor, partial curve]
3 | CCC(C)c1ccccc1NC(=O)C(C)N(C)Cc1cccc(OC)c1 (stereo unspecified) | inconclusive: 10 µM [fluorescent, side channel, partial curve]
4 | COc1ccc(NC(=S)NC(NC(=O)c2cccc3ccccc23)C(Cl)(Cl)Cl)c([N+](=O)[O-])c1 (stereo unspecified) | inconclusive: 10 µM [quencher, side channel, partial curve]
5 | O=S(=O)(Nc1nc2ccc(S(=O)(=O)N3CCCC3)cc2s1)c1ccc(F)cc1 | inconclusive: 17.8 µM [quencher, side channel, partial curve]
6 | Cc1ccc(C)c2[nH]c(=O)c(CN(Cc3ccco3)C(=S)NCC3CCCO3)cc12 (stereo unspecified) | inconclusive: 20 µM [fluorescent, side channel, partial curve]
7 | Fc1cccc2sc(Nc3nc4ccccc4s3)nc12 | inconclusive: 12.6 µM [quencher, side channel, partial curve]
8 | O=C(Nc1nc(-c2ccc(Cl)s2)cs1)c1ccco1 | inconclusive: 17.8 µM [quencher, side channel, partial curve]
9 | CC(C)(C)C(=O)OCCNc1nc(-c2ccccc2)nc2ccccc12 | inconclusive: 35.5 µM [quencher, side channel, single point]
10 | Cn1c(=O)[nH]c(=O)c2c1nc(OC(=O)c1ccccc1)n2CC(O)COc1ccc(F)cc1 (stereo unspecified) | inconclusive: 39.8 µM [quencher, side channel, single point]
11 | O=c1[nH]c2cc(C(F)(F)F)c(N3CCOCC3)cc2n(CP(=O)(O)O)c1=O | inactive
12 | COc1ccc(NC(=O)c2ccc(NC(=O)c3cccs3)cc2)cc1 | inconclusive: 11.2 µM [fluorescent, side channel, partial curve]
13 | C#CCOc1ccc(/C=C2/C(=O)NN(c3ccc(F)cc3)C2=O)cc1OC | inconclusive: 39.8 µM [quencher, side channel, single point]
14 | NC(=O)C[N+]1(CC#CC(O)(c2ccccc2)c2ccccc2)CCCC1 | inactive
15 | O=C(O)c1cccnc1Nc1cccc(C(F)(F)F)c1 | inconclusive: 25.1 µM [quencher, side channel, partial curve] [middle of 4 runs]
16 | O=C(Nc1cccc(NC(=O)c2ccco2)c1)c1ccc([N+](=O)[O-])cc1 | inconclusive: 28.2 µM [quencher, side channel, single point]
17 | Cc1cc(-c2ccccc2)nc(N/N=C/c2ccc(O)cc2O)n1 | inconclusive: 14.1 µM [quencher, side channel, partial curve]
18 | Oc1ccc(Nc2nc(-c3cccs3)cs2)cc1 | inconclusive: 10 µM [quencher, side channel, partial curve]

Row | Structure (SMILES) | Potency
19 | C/C(=N/Nc1nc(C)c(C)s1)c1cccc([N+](=O)[O-])c1 | inconclusive: 14.1 µM [quencher, side channel, partial curve]
20 | Cc1ccc(C(C)(C)C)cc1S(=O)(=O)N1CC(=O)Nc2ccccc21 | inconclusive: 2.82 µM [quencher, side channel, partial curve]
21 | O=C(N/N=C/C(Br)=C/c1ccccc1)c1cccs1 | inconclusive: 25.1 µM [quencher, side channel, partial curve]
22 | CCc1ccc(OCC(=O)Nc2ncc3c(n2)CC(C)(C)CC3=O)cc1 | inconclusive: 2 µM [inhibitor, partial curve]
23 | COc1cccc(NC(=O)Nc2nc(SC)ns2)c1 | inconclusive: 14.1 µM [quencher, side channel, partial curve]
24 | Cc1ccc(N=C2NC(=O)S/C2=C\c2ccco2)cc1 | inconclusive: 22.4 µM [quencher, side channel, partial curve]
25 | O=C(COc1ccc2ccccc2c1)NNC(=O)c1cccs1 | inconclusive: 11.2 µM [inhibitor, partial curve]
26 | CCOc1ccc(N2C(=O)CC(N3CCN(c4ccc([N+](=O)[O-])cc4)CC3)C2=O)cc1 (stereo unspecified) | inconclusive: 20 µM [quencher, side channel, single point]
27 | CC(C)Sc1nc2c([nH]1)c(=N)ncn2Cc1ccccc1 | inconclusive: 17.8 µM [inhibitor, single point]
28 | Cc1nc(CS(=O)c2ccc(Cl)cc2)cc(NCc2ccc(Cl)cc2Cl)n1 (stereo unspecified) | inconclusive: 17.8 µM [fluorescent, side channel, single point]
29 | Cc1ccccc1C(=O)Nc1ccc(C(=O)N/N=C/c2ccc(O)c(Br)c2)cc1 | inconclusive: 15.8 µM [quencher, side channel, partial curve]
30 | COc1ccc2[nH]c(C)c(CCNC(=S)Nc3ccccc3OC)c2c1 | inconclusive: 15.8 µM [quencher, side channel, partial curve]
31 | Cc1ccc(NC(=O)Cc2c[nH]c3ccccc23)cc1S(=O)(=O)N1CCCCCC1 | inconclusive: 35.5 µM [quencher, side channel, single point]
32 | Cc1ccccc1OCC(=O)Nc1ccc(S(=O)(=O)N2CCOCC2)cc1 | inactive
33 | Cc1cc(O)ccc1Nc1nc(-c2cccs2)cs1 | inconclusive: 25.1 µM [quencher, side channel, partial curve]
34 | Cc1ccc2c(CN(C)Cc3ccc(OC(F)F)cc3)cc(=O)oc2c1C | inconclusive: 15.8 µM [fluorescent, side channel, partial curve]
35 | COc1ccc(CN2CCN(C(=O)c3cccc4ccccc34)CC2)cc1OC | inconclusive: 2.51 µM [inhibitor, partial curve]
36 | COc1cccc(Nc2nc(-c3sc(NC(=O)c4ccco4)nc3C)cs2)c1 | inconclusive: 12.6 µM [quencher, side channel, partial curve]
